# Source: PubChem BioAssay AID588855 (National Center for Advancing Translational Sciences (NCATS), 2011)
# Among all 410,000 compounds or so, about 5,000 (1.2%) were called active. Inconclusive results, whose numbers are uncertain, are shown with a selection of clear calls. Calls follow the shape of the dose curve; as a rule, active = well fitted inhibition curve with a large enough effect; inconclusive = small, poorly fitted or top-dose-only effect; inactive = no such curve, though single readings can be large or run the other way. Where the call is inconclusive, the potency comes from a doubtful curve fit.
# Test: qHTS for Inhibitors of TGF-b; also: nearly all actives have a fitted effect of over 65% in size
# Conditions: HepG2 CAGA-GFP TGF-b/SMAD3 reporter, GFP fluorescence, 18 h, TGF-beta stimulated, 500 pg/mL final; series mostly up to 46.1 µM
# In short: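 Smad-responsive CAGA-GFP expression was quantified in HEPG2 cells exposed to compounds and 500 pg/mL final TGF-beta for 18 h at 37 degrees C; unstimulated wells defined full inhibition.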
# Potency is read from the fitted curve at half-maximal effect; tags tell the direction and shape of the fitted curve.
row,SMILES,Potency
1,Cc1cc(N2C(=O)C=CC2=O)c([N+](=O)[O-])cc1C,"inconclusive: 35.5 µM [inhibitor, single point]"
2,O=C(Nc1cc(Cl)c(O)c(Cl)c1)C1CCCO1 (stereo unspecified),"inconclusive: 28.2 µM [inhibitor, single point]"
3,O=c1c2ccccc2sn1-c1ccccc1F,"inconclusive: 11.2 µM [inhibitor, partial curve, poor fit]"
4,Cc1cc(=O)[nH]c(SCC(=O)Nc2ccc(S(=O)(=O)N3CCOCC3)cc2)n1,inactive
5,Cc1ccc(C(=O)COC(=O)CSc2cccc3cccnc23)c(C)c1,"inconclusive: 35.5 µM [inhibitor, single point]"
6,COc1cc(C(=O)COC(=O)c2ccco2)cc(OC)c1OC,"inconclusive: 6.31 µM [inhibitor, single point]"
7,COc1cc(NC(=O)COC(=O)C2CC2)c(C)cc1[N+](=O)[O-],inactive
8,CCCCN(c1ccccc1)S(=O)(=O)N(C)C,inactive
9,CCCNC(=S)Nc1cc2oc3ccccc3c2cc1OC,"inconclusive: 22.4 µM [inhibitor, single point]"
10,CCOC(=O)c1ccc(NC(=S)NCCC2=CCCCC2)cc1,"inconclusive: 20 µM [inhibitor, single point]"
11,CN(C)c1ccc(CN(CC2CCCO2)C(=O)COc2ccccc2Cl)cc1 (stereo unspecified),inactive
12,Cc1c(C(=O)N2CCN(c3ccccn3)CC2)oc2c(F)cccc12,inactive
13,COc1ccc(C(=O)NCCc2cnc[nH]2)cc1OC,inactive
14,O=C(CN1C(=O)/C(=C\c2ccc(F)cc2)Oc2ccccc21)N1CCN(c2ccccn2)CC1,"inconclusive: 35.5 µM [inhibitor, single point]"
15,O=C(c1cc2cc(F)ccc2[nH]1)N1CCC(Cc2ccccc2)CC1,"inconclusive: 35.5 µM [inhibitor, single point]"
16,O=C(Nc1ccccc1O)c1ccccc1O,"inconclusive: 35.5 µM [inhibitor, single point]"
17,Cc1ccccc1-c1cc2nc(Oc3cccc4ccccc34)n(C)c(=O)c2s1,inactive
18,Cc1nn(Cc2ccc(Cl)c(Cl)c2)c(C)c1NC(=O)c1cc(C2CC2)on1,"inconclusive: 10 µM [inhibitor, partial curve]"
19,O=C(Nc1ccc(-c2nc3cc(NC(=O)c4ccccc4Cl)ccc3o2)cc1)c1ccccc1Cl,"inconclusive: 0.398 µM [inhibitor, full curve, poor fit]"
20,CC(=O)Nc1ccc(NC(=O)CSc2ncc(C(=O)Nc3ccc(F)cc3)c(=O)n2C)cc1,inactive
21,C/C(CC(=O)N1CCCC1)=N\NC(=O)c1cc2ccccc2cc1O,inactive
